# The campaign covered roughly 150,000 compounds. About 540 (0.36%) showed an effect of 50% or more. Some of the results follow.
# Tested on: Plasmodium falciparum
# Test: Primary screen in NF54 nanoGlo assay, in single point, at 2uM, 72h; a lower Z score goes with more inhibition
# Format: functional, Erythrocyte
# Conditions: timepoint 72 hour
Compound,% Inhibition,Z score
COc1cc(C#CC#CCN2CCCCC2)ccc1O,-4%,0.63
COCCN(C)S(=O)(=O)[C@H]1CCCN(Cc2cccc3[nH]ccc23)C1,1%,-0.14
CC(=O)N(CCN1CCOCC1)[C@H]1CCN(S(=O)(=O)c2cccc(Cl)c2)C1,43%,-4.85
COc1ccccc1N1C(=O)C2C(C1=O)C2(c1ccccc1)c1ccccc1 (stereo not drawn),1%,-0.07
O=C(Nc1cc(F)ccc1N1CCCCC1)N[C@@H](CO)c1ccco1,-12%,1.25
O=C(C1CCCN1c1nccs1)N1CCOC2CCCCC21 (stereo not drawn),-14%,2.16
Cc1nnc(CN(C)Cc2ccc3ccccc3n2)o1,-21%,2.06
C[C@](O)(CNS(=O)(=O)CC1CCC(F)(F)CC1)c1ccccc1,-2%,0.22
CCC1(C)CN(C(=O)Nc2scnc2C(C)C)C1,-12%,1.18
COc1ccccc1N1CCN(C(=O)Cc2c(C)nc3nc(-c4cccs4)nn3c2C)CC1,-5%,0.67
CCOC(=O)N1CCC(NC(N)=NCc2ccc(OCC)cc2)CC1,-1%,0.09
Cc1nc2c(N[C@@H](CCn3cncn3)c3ccccc3)ncnc2o1,-2%,0.42
O=C(NCC1CC1)c1nn(Cc2ccc(F)cc2)c2c1COCC2,-19%,2.37
Cc1cnc(C(=O)N[C@@H]2CCC[C@@H]2C(=O)NCc2ccc(N3CCOCC3)cc2)cn1,-9%,1.21
O=C1NCC2(CCN(Cc3cc4n(n3)CCN(Cc3cccs3)C4)CC2)O1,-1%,0.16
CCOC(=O)CC(=O)Nc1cc(C)ccc1S(N)(=O)=O,-21%,2.67
CCOC(=O)c1cn2c(n1)N(C(=O)c1ccccc1OCC)CCC2,1%,-0.07
Cc1n[nH]c(CN2CCN(Cc3ccc4c(c3)OCO4)C(=O)C2)n1,-2%,0.44
C[C@H]1CCCN(CCCNC(=O)c2cc3occc3c(Nc3ccc(F)cc3)n2)C1,-3%,0.33
Clc1cccc(N2CCN(Cc3ccc(OC4CCNCC4)cc3)CC2)c1,30%,-1.28
CCCCCC1CCC(c2ccc(-c3ccc(CCC)cn3)cc2F)CC1 (stereo not drawn),-5%,0.62
O=C(NC[C@]1(O)CCCN(C(=O)c2cccs2)CC1)N1CCOCC1,2%,-0.41
CCn1cnnc1[C@H]1CCCN(CC(=O)N(C)Cc2ccc(F)cc2)C1,-9%,1.22
CC(C)(C)C(=O)N1CC[C@H](Oc2cccc3cccnc23)C1,-24%,4.54
Cc1cc(F)cc2c(=O)c(C(=O)N3CC(C)(C)C3(C)C)c[nH]c12,-7%,0.79
O=C(CCOc1cccc(F)c1)N1C[C@@H]2CS(=O)(=O)C[C@@H]2C1,-6%,0.72
Cc1nn(-c2ccc(C(F)(F)F)cn2)c(C)c1CC(=O)N1CCN(c2ncccn2)CC1,-2%,0.36

Compound,% Inhibition,Z score
CCC1(CC)CN(C(=O)NC2Cc3ccccc3C2)C1,-3%,0.49
COc1ccc(CNS(=O)(=O)N(C)C2CC2)cc1OC,6%,-0.76
CC1(C)C(=O)NCCN1C(=O)c1ccc2nccnc2c1,36%,-0.79
CCC(C)N(CC(=O)N1CCc2sccc2C1COc1ccc(Cl)cc1)C(=O)c1cccc(OC)c1 (stereo not drawn),-5%,0.53
COc1ccc2[nH]c(CN[C@@H](C)Cn3nc(C)cc3C)cc2c1,-3%,0.52
O=C1CC[C@H](N2CCN(Cc3ccc4c(c3)OCO4)CC2)CCN1Cc1ccc(F)c(F)c1,-3%,0.35
CCn1nc(C)cc1C(=O)Nc1cccc(-c2nnnn2CC)c1,-12%,1.39
CCc1nccn1CCN(C)Cc1noc(C(C)C)n1,-14%,2.13
Cc1ccc(C)c(N2CCN(S(=O)(=O)c3c(C)sc(C)c3-c3[nH]nc(C)c3C)CC2)c1,3%,-0.35
CN(C)c1ncccc1N(C)C(=O)Cc1ccon1,-3%,0.59
O=C(NC[C@H]1CCCN1c1nccs1)c1ccccc1,-12%,2.25
CC(C)c1noc([C@H](C)NS(=O)(=O)N2CCOCC2)n1,2%,-0.37
CS(=O)(=O)N1CCO[C@@H](Cn2ccnc2-c2cc(C#CCO)cs2)C1,-9%,1.07
Cc1ccc(C(=O)n2cnc(N)n2)cc1,-5%,0.95
CCOC(=O)CC1(N(C)C(=O)c2cc(C)on2)CCCCC1,-10%,1.31
O=C(C1CCC(C2CC2)N1)N1CCC2(CCc3ccccc3C2=O)CC1 (stereo not drawn),1%,-0.19
CC1CN(C(=O)c2cn(C)nn2)CC(c2ccsc2)O1 (stereo not drawn),5%,-0.61
Cc1cc(C(=O)N2CCn3c(nnc3C(F)F)C2)nn1C(C)C,5%,-0.92
CCOC(=O)CCc1c(C)nn(-c2nc(C)cc(C)n2)c1O,4%,-0.6
Cc1nccn1[C@@H](C)C(=O)NCCc1nccn1C,-11%,1.76
COc1ccccc1NS(=O)(=O)c1cc(-c2nnc(C(=O)N3CCCC3)o2)sc1C,5%,-0.62
Cc1nsc(NC2CC2)c1C(=O)N1CCN(c2c(F)cccc2F)CC1,-4%,0.69
CC1CC(NC(=O)N[C@@H]2CCCc3c(F)cc(F)cc32)c2nccn21 (stereo partly drawn),-8%,1.42
COc1ccc(Cl)cc1-c1cccc(-n2cncc2C(=O)NC2CC(C)CC(C)(C)C2)c1 (stereo not drawn),5%,-0.43
COc1cc(NC(=O)Cc2ccn[nH]2)cc(OC)c1Br,-11%,1.82
COCc1noc(-c2cccc(OCC(F)F)n2)n1,-6%,0.51
Cc1ccc(NC(=O)N[C@@H](CC(=O)c2ccc(Cl)cc2Cl)C(Cl)(Cl)Cl)cc1,6%,-0.74
